Measured values published in the BET-seq Pho4 binding data (Le et al. 2018).
This is one part of the list. These are noisy estimates, calculated here from bound and input reads.

target: T1, Pho4 (S. cerevisiae) (UniProt P07270); assay: relative binding free energy (BET-seq); higher = weaker binding; settings: reference: library average
T1 sequence: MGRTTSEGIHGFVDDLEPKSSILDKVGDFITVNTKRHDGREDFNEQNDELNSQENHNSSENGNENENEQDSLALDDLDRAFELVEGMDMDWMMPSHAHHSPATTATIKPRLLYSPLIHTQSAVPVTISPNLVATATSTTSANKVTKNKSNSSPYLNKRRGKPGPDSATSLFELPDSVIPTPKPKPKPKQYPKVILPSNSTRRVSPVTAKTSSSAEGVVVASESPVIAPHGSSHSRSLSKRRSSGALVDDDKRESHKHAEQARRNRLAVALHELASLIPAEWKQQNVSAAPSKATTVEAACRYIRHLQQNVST

| Sequence | relative binding free energy [kJ/mol] |
| --- | --- |
| GGGAACACGTGGAAAG | 0.418 |
| GTAGACACGTGATTAG | 0.753 |
| GGCAGCACGTGTGGCG | -0.167 |
| TTTCGCACGTGATAGG | -0.126 |
| AAAGGCACGTGTGTTT | 0.0837 |
| ATAGTCACGTGCGGTG | 0.251 |
| TGTATCACGTGGTGCA | -0.377 |
| AAGAGCACGTGATGGT | 0.0837 |
| TGGGGCACGTGCGTGC | -0.837 |
| TCATGCACGTGGCTTG | 0.0837 |
| TTTTGCACGTGCTGCG | -0.251 |
| ATCGACACGTGGTAGT | -0.167 |
| AGTCACACGTGGTAGT | 0.251 |
| GTGAGCACGTGGCGTC | -0.0418 |
| TACATCACGTGAATGT | 1.3 |
| GTCTTCACGTGTTATT | 1.55 |
| ATTTACACGTGCGAGG | 0.879 |
| TGTAACACGTGTGATT | 0.418 |
| TCGTGCACGTGGGGCC | -0.46 |
| TGGTACACGTGTCGAT | 0.795 |
| GGAGTCACGTGAGCTT | 1 |
| TTTGGCACGTGTGCAA | -0.628 |
| GGGGTCACGTGGAATC | 1.13 |

| Sequence | relative binding free energy [kJ/mol] |
| --- | --- |
| AGGGGCACGTGAGGTG | 0.251 |
| GAGGTCACGTGTGATT | 0.753 |
| TGGGACACGTGTGAGG | 0.46 |
| GGTTGCACGTGCGGAA | 0.46 |
| TTTATCACGTGGATTT | 1.05 |
| AGGATCACGTGTTTTC | 0.962 |
| ATCCTCACGTGTTTGT | 0.377 |
| TTGGACACGTGTGAGA | 0.795 |
| GGGTTCACGTGAGACG | 1.59 |
| CGTTGCACGTGATTGC | 1.38 |
| GATTTCACGTGATTGG | 1.51 |
| GTGGTCACGTGGGGGT | 0.251 |
| ATGTTCACGTGTGAAG | 1.26 |
| TCATGCACGTGGGTTA | -0.837 |
| TGGGACACGTGTGTTT | 0.753 |
| TTAGACACGTGATTTG | 0.418 |
| GATAGCACGTGTAGGA | 0.335 |
| GGGATCACGTGTGAGA | 1.21 |
| GTCTCCACGTGTTTTG | 0.502 |
| CATGCCACGTGTAGGG | -0.126 |
| ATGAACACGTGGTTTA | 0.418 |
| GCTGCCACGTGTGGGA | 0.711 |
| TAAGTCACGTGTCGTT | 0.628 |

| Sequence | relative binding free energy [kJ/mol] |
| --- | --- |
| GCCGGCACGTGGTTGT | -0.0418 |
| AAAGGCACGTGCGTTG | -0.544 |
| TGAATCACGTGGTTCG | 0.753 |
| CGGGACACGTGGTGGC | -0.126 |
| GGGCACACGTGGTCGT | 0.167 |
| GTATGCACGTGGAAGC | 0.586 |
| GTTAGCACGTGCCTGG | 0 |
| AAGAGCACGTGGTTGG | -0.962 |
| TTGAACACGTGCATGT | 0.126 |
| TAATGCACGTGGGAAG | -0.669 |
| GTAGGCACGTGTTGTC | -0.251 |
| ACATTCACGTGATTGT | 1.21 |
| TAATTCACGTGTGGAA | 0.377 |
| AAGTGCACGTGGGAAA | -0.293 |
| GGTGCCACGTGATAGT | 0.586 |
| GGAGGCACGTGGGCTT | -0.502 |
| TAGCTCACGTGATTGT | 1.34 |
| GAGTGCACGTGGTGCT | 0.251 |
| ATGTACACGTGGTCGT | -0.251 |
| TAGATCACGTGATGTG | 0.795 |
| GAATGCACGTGTTTAG | 0.544 |
| GCGTTCACGTGGTTTA | 0.669 |
| TTATCCACGTGTTCTT | 0.544 |

| Sequence | relative binding free energy [kJ/mol] |
| --- | --- |
| TTAGACACGTGAGATT | 1.42 |
| AGGTGCACGTGCAGAG | -0.293 |
| GGTGGCACGTGTCACG | -0.46 |
| CGAGGCACGTGAGGGG | 0.335 |
| CGTTGCACGTGAGGGC | 0.167 |
| AGTGACACGTGGTAAA | 0.0418 |
| CTGCTCACGTGAGGGG | 1.34 |
| CTTCGCACGTGAGTGT | 0.126 |
| GGTGTCACGTGGTAGT | 0.293 |
| AAAGTCACGTGACGTG | 1.21 |
| ATTATCACGTGCAATT | 0.92 |
| TTAATCACGTGGGCTG | 0.544 |
| TTGGGCACGTGATGCA | -0.126 |
| TCAGTCACGTGTTAAG | 0.753 |
| GGTAGCACGTGATGCT | 0 |
| TCATACACGTGGGGAT | 0.251 |
| ATTTTCACGTGAGAAA | 2.01 |
| TGTCGCACGTGGCTTT | -1.17 |
| GAGGGCACGTGGGGCT | -0.669 |
| TAGTTCACGTGAGACG | 1.42 |
| TGGATCACGTGCTTTG | 0.669 |
| TTTGCCACGTGCTGGG | -0.586 |
| GCTGGCACGTGTGATA | 0.209 |

| Sequence | relative binding free energy [kJ/mol] |
| --- | --- |
| GCTGCCACGTGATGGT | 0.544 |
| TATGCCACGTGGATTT | 0 |
| GTTGTCACGTGGTTCC | 0.293 |
| TTAGTCACGTGTCGTA | 0.167 |
| TGATCCACGTGTTGTT | 0.0837 |
| CTTTGCACGTGGGTGT | -0.418 |
| TCTTGCACGTGATTAT | 0.502 |
| TAGGGCACGTGGTTAA | -0.544 |
| CGGTGCACGTGTTTGG | -0.293 |
| TGTTTCACGTGGTTAT | 1.67 |
| TTATACACGTGTATTT | -0.251 |
| GTATTCACGTGTGCAG | 1.21 |
| AGCTTCACGTGGTGGG | 0.167 |
| TTCATCACGTGAATTT | 1.21 |
| ATTGCCACGTGTTAGT | -0.0837 |
| TTTTACACGTGCGTGT | 0.251 |
| AAGTGCACGTGGTTTA | 0.209 |
| TAAGTCACGTGACGGG | 0.711 |
| GGCAGCACGTGCTGGT | -0.209 |
| GTGGGCACGTGAAAAT | 0.669 |
| GTATACACGTGGAGGA | 0.795 |
| TATTTCACGTGCGATA | 1.3 |
| TATAGCACGTGGACTG | -0.418 |
